Results on 14 molecules are retold here after publication PMC12136788.

Positions count from the first letter of the chain named. The list shows a part of the results.

First the molecules themselves.
T1: UNK ZnF1-3 (human, UniProt Q9C0B0 31-174)
T1 sequence: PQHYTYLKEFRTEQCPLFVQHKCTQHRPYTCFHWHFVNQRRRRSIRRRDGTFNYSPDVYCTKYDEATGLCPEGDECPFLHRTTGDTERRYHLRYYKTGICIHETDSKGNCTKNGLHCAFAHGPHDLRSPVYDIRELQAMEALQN

B1: chrX:102931482:102931483:-_ENSG00000123562_ENST00000441076|hu_mus|FALSE|FALSE (ssRNA)
RNA: GGGAGUUCUACAGUCCGACGAUCAAUGGCAUCGACAUUCUUUUUAGCAGGGAGCUGGAACAACUGCUUCUGCCUCGUAACCAAGUCCCAGUCCUCCACCAGCCACGGUUUUAAUUCUUCAGGGAUCUUCACCUUCACCUCCAUCAACAGAGGAUUGAGCAUCA
B2: chr16:47694578:47694579:+_ENSG00000102893_ENST00000566044|hu_mus|FALSE|FALSE (ssRNA)
RNA: GGGAGUUCUACAGUCCGACGAUCCUCAGGAGCAUCUGCGGUACUGCUCUGCCGUUUGACUUUUGAAUGCUUAGGAAAUUCUAGUUCUUCAAAGCUCUUAAAUUCUGGAAGCUUUUCUGUGUCACUAAUUCGUAGAAAGUCAAGCAACAGAGGAUUGAGCAUCA
B3: chr1:220312391:220312392:+_ENSG00000067704_ENST00000302637|hu_hu|FALSE|FALSE (ssRNA)
RNA: GGGAGUUCUACAGUCCGACGAUCAUCUGUUUCUGGGUUGAAAUCAGCCACAUUUCCCAAAAGAAAGCGAAGUGUAUUCCUAAGCUUGCUAAUAUCAUCUCUGGCAGCAUUGAGCACGGAUGGGCCAAUUGCAACUUCGGUGAACAACAGAGGAUUGAGCAUCA
B4: chr7:140404665:140404666:+_ENSG00000090266_ENST00000247866|hu_hu|hu_hu_hu_mus_False|38_108 (ssRNA)
RNA: GGGAGUUCUACAGUCCGACGAUCUGCGUACAGAGUGCCAGAGAGUUUACAGUGUCAGUCCUCGUCAUCAGGAGGGAUUCCCAGUUCUUCAUCUGUCCACUGGGAAGGAUCUGGAUAUGAAAAGUGACCCAGCACAGCAUCCGACAACAGAGGAUUGAGCAUCA
B5: chr14:66974463:66974464:+_ENSMUSG00000022044_ENSMUST00000074523|mus_hu|mus_mus_mus_hu_False|18_68 (ssRNA)
RNA: GGGAGUUCUACAGUCCGACGAUCUUGUAGGACGACUUAUUCAGGGGAUCGGCCAGGAAGCAGGAGCAGAACAGAGACACCAGCGGGAGCUCCUUCAUCUUCUCUUUGUAGGCAGCAAGAGUCAUGUUUCUGGGAUCUGGUGGCCAACAGAGGAUUGAGCAUCA
B6: chr10:70718461:70718462:-_ENSMUSG00000019927_ENSMUST00000020085|mus_mus|motif|central (ssRNA)
RNA: GGGAGUUCUACAGUCCGACGAUCGUAAAAACCAAAGGGCUCGUGGAACGAAGGACACGGCAAACGGCGCCCGGCUUAAUGCGGACGCUGGAAAAGACAUAGAUUUUACAGUACUCUGGCGUAAGUGAAAGUGUUUGAAACUUUCAACAGAGGAUUGAGCAUCA
B7: 63353915_63354035_4938_CDS_ENSMUSG00000027520_ENSMUST00000029025|mouse|control|control (ssRNA)
RNA: GGGAGUUCUACAGUCCGACGAUCCUGUUGUAACUGGCAGGUAGUGGGCUGAUCAGAAGGAUCAACAUUGAAAUUGAGUUCAUGACCACAAGAUGGACAAGUAGAAUCGCCUAGGAUAAUAUAGUCAUUUUUCCUGUUUAUUAUCAACAGAGGAUUGAGCAUCA
B8: 89800263_89805006_4233_CDS_ENSMUSG00000002489_ENSMUST00000163370|mouse|control|control (ssRNA)
RNA: GGGAGUUCUACAGUCCGACGAUCCCAGAUGACGCUGGUGUGCAAGAGCAGGUCACCCAUGCUCAGAUCUGCAACCUCUUUCUUCUCUCCCGUCUGCUCAGCAAUCAGCUGGUCAAACACAGCACCAAACUCUUCGUGGAUCUUCAACAGAGGAUUGAGCAUCA
B9: chr10:120833061:120833062:-_ENSG00000107581_ENST00000369144|perfect_dup|motif|central (ssRNA)
RNA: GGGAGUUCUACAGUCCGACGAUCUUGGGACUCUUCUUUAGCAGCUUCUGUUUUUUCCUCUGCUAAUUUCAAAUAUGCCCGGACAACAUCUUCUAAAGAUUUAAUGUUUACCUGUUGGCAUAUGUUCUUAUAUUGAUAUAACCCCAACAGAGGAUUGAGCAUCA
B10: chr2:48026839:48026840:+_ENSG00000116062_ENST00000540021|hu_hu|hu_hu_hu_mus_False|98_108 (ssRNA)
RNA: GGGAGUUCUACAGUCCGACGAUCAUAGUGUGCCACUAGAGUCCUAAAUCUGGAACAGUGGCGGUCAUCCGAAAACUGGCCGAUGAAAAACUUGCCCAGUGAAGUGUCCACAAAGCAAACACCAUACACACGAGUGUGACCAGACAACAGAGGAUUGAGCAUCA
B11: chr2:48026839:48026840:+_ENSG00000116062_ENST00000540021|hu_hu|hu_hu_hu_mus_False|28_58 (ssRNA)
RNA: B10 RNA with U30A, A39C, G78A, G81U, C108A
B12: chr2:217001844:217001845:+_ENSG00000079246_ENST00000392132|hu_hu|hu_hu_hu_mus_False|28_108 (ssRNA)
RNA: GGGAGUUCUACAGUCCGACGAUCACCGACUUGAGGAUUAGAUCUUUUGUCAUAAGCAUAUCGGACGAUGGCGACCAUGUUUAACUCAUCCAAAGCAUGAACGAGAGAGGAAAGUGCAACAGCUGCCGCCUCAUCAUCCUUUGCCAACAGAGGAUUGAGCAUCA
B13: chr20:57566945:57566946:+_ENSG00000101158_ENST00000344018|hu_mus|FALSE|FALSE (ssRNA)
RNA: GGGAGUUCUACAGUCCGACGAUCGUGGACAGUCUCGAUAGCCUUUGACGUGGACUUGAGCUCGUCUUUGCCAAUGCUGACCCGCUUGUUCUUCUUCCAGGUCUCAACCACACUGGCAGCGUAAGCCAGGAUGUGGAUGUACUUCAACAGAGGAUUGAGCAUCA
B14: 40752187_40752307_78_3pUTR_ENSG00000182093_ENST00000333781|human|control|control (ssRNA)
RNA: GGGAGUUCUACAGUCCGACGAUCGGACGCUCCUGGCUGUGCUGGGUCCGCUACGGCAGCUCCAUGGGGACCACAACAACAGCGGCGACCGCGCCUGCGCGGUGAAGCCAAGCGCCCCAGAACAGGCGCGCCGACGCGCCUGCGCAACAGAGGAUUGAGCAUCA

The assay concerns the target T1, UNK ZnF1-3. Description: nsRBNS (natural sequence RNA bind-n-seq); RBNS binding buffer (assumed for nsRBNS): 25 mM Tris pH 7.5, 150 mM KCl, 3 mM MgCl2, 0.01% Triton X-100, 500 ug/ml BSA, 20 U/ml SUPERase-In, 4 C; UNK is unkempt and MSI1 is Musashi-1; names of the RNAs are library labels; protein concentration not given here; high values mean tight binding.
For the molecule B1, the binding signal was found to be 1.46 enrichment R.

B2 displayed a binding signal of 0.999 enrichment R.

As for B3, the binding signal worked out at 0.984 enrichment R.

B4 gave a binding signal of 1.45 enrichment R.

Molecule B5 had a binding signal of 2.55 enrichment R.

As for B6, the binding signal was 0.571 enrichment R.

B7 displayed a binding signal of 1.41 enrichment R.

In turn, B8 displayed a binding signal of 1.2 enrichment R.

B9 yielded a binding signal of 0.789 enrichment R.

As for B10, the binding signal is 1.05 enrichment R.

B11 showed a binding signal of 1.26 enrichment R.

The molecule B12 displayed a binding signal of 1.69 enrichment R.

B13: the binding signal was 0.665 enrichment R.

B14 showed a binding signal of 0.408 enrichment R.
